In paper PMC6555819:
Some of the results follow.

molecular target: T1, THRa (Homo sapiens) (UniProt P10827); settings: 90 nM, no RXRa, PBS pH 7.4, 2% milk, 0.02% Triton X-100, 1 mM DTT, BSA, 0.4 mg/ml salmon testes DNA; double strand, one strand shown
T1 sequence: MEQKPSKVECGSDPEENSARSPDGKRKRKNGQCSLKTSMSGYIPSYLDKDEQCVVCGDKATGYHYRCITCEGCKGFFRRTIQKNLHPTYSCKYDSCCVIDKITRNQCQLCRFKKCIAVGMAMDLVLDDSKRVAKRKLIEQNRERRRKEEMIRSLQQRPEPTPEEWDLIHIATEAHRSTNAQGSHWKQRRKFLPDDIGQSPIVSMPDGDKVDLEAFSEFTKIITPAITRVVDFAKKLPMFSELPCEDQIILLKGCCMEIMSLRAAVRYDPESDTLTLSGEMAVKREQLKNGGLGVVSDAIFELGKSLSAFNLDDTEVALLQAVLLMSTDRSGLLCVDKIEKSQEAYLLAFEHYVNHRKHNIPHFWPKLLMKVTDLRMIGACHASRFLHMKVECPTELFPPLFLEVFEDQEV

Sequence | binding signal (PBM z-score against 500 random probes)
GCTCCCTGCCCAGTTCTGTGCAGGGTGTGCGTGTCTGCGATTGACAGCGTAGAATGAAGG | -0.95
GCGCCTCTGGAATGTAAACTCCAGCCTGGCATGTATGCGATTGACAGCGTAGAATGAAGG | -0.46
GCTGGCAATGGCTGGACCACTCCAAGAACTGTGTGGGCGATTGACAGCGTAGAATGAAGG | -0.88

molecular target: T2, VDR (Homo sapiens) (UniProt P11473); settings: 270 nM, no RXRa, PBS pH 7.4, 2% milk, 0.02% Triton X-100, 1 mM DTT, BSA, 0.4 mg/ml salmon testes DNA; double strand, one strand shown
T2 sequence: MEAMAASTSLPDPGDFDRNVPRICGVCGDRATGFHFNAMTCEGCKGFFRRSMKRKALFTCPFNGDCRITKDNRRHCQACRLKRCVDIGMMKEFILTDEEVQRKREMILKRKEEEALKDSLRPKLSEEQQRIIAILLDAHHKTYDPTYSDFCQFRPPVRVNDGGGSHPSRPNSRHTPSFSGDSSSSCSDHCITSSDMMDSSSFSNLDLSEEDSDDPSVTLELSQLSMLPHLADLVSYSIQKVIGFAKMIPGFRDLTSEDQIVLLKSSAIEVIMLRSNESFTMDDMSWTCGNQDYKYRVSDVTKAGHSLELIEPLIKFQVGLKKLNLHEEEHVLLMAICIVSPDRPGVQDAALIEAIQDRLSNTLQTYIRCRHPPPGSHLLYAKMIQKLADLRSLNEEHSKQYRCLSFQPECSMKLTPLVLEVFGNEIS

Sequence | binding signal (PBM z-score against 500 random probes)
GCTGGGCACATGAGGGATGGGAGTTGATCTCTGTGGGCGATTGACAGCGTAGAATGAAGG | 0.06
GCGTGCGAGGGAAGGAGCATGCTTCATTGATCCCATGCGATTGACAGCGTAGAATGAAGG | -1.05
GCGCTACTTGGGAGGCTGAGATGGTAGAATCACTTGGCGATTGACAGCGTAGAATGAAGG | -0.69
GCTCTCTGGTACCAGTGAAGAAGACGTCCAGGTGGCGCGATTGACAGCGTAGAATGAAGG | -0.76
